PubChem BioAssay AID1347071 (National Center for Advancing Translational Sciences (NCATS), 2019)
“And” between values parts separate entries of the source, which are not always exact repeats. Equal entries are not always repeated. The whole screen tested about 410,000 compounds, of which about 260 (0.063%) were called active. Inconclusive results, whose numbers are uncertain, are shown with a selection of clear calls. The call rests on the fitted dose curve; in most records, active means well fitted activation curve with a large enough effect; inconclusive means small, poorly fitted or top-dose-only effect; inactive means no such curve, though single readings can be large or run the other way. A potency beside an inconclusive call is a rough fit, not a confirmed value.

Experiment: qHTS for compounds that reverse cellular toxicity of Amyloid beta (A-beta) peptide in yeast: Primary Screen; further: nearly all actives have a fitted effect of over 55% in size
Conditions: yeast expressing A-beta42, growth rescue, OD600, 48 h; growth rescue: at 46.1 µM (top of the series), 0% DMSO, 100% iron-clioquinol control
In short: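 Yeast A-beta toxicity model in growth medium with pinned compounds, 48 h at 30 C; growth read as absorbance at 600 nm. Normalized to FeCl3/clioquinol equimolar mix (positive) and DMSO (negative).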
Potency means the concentration at half of the fitted maximal effect; tags describe the fitted curve by direction and shape.

SMILES | Potency | growth rescue
COc1ccc(OC)c(-c2csc(NC(=O)CSc3ccc([N+](=O)[O-])cc3)n2)c1 | inconclusive: 3.98 µM [activator, partial curve] | 
S=C(Nc1cccc(Cl)c1)NC1CCCCC1 | inconclusive: 31.6 µM [activator, single point] | 
COCC(=O)Nc1nc2n(n1)C(c1ccccc1)CC(c1ccc(OC)cc1)N2 (stereo unspecified) |  | inactive: 22.1%
COc1cccc(NC(=S)NC(Cc2ccccc2)c2ccccc2)c1 (stereo unspecified) | inconclusive: 7.08 µM [activator, partial curve, poor fit] | 
CCOc1ccc(CCNC(=O)c2cc3sccc3n2CC)cc1OCC | inconclusive: 31.6 µM [activator, single point] | 
COc1ccc(-c2nnc(SCC(=O)NCc3cccs3)n2C)cc1 |  | inactive: -10.2%
COc1ccc(C2=NN(C(N)=S)C(c3ccco3)C2)cc1 (stereo unspecified) | inconclusive: 12.6 µM [activator, partial curve] | 
COCCCNc1ccn2nc(-c3ccccc3)cc2n1 | inconclusive: 15.8 µM [activator, partial curve, poor fit] | 
COc1ccc(N2CCN(C3(c4ccccc4)C(=O)c4ccccc4C3=O)CC2)cc1 |  | inactive: -12.1%
Cc1ccccc1NC(=O)CNc1ccccc1N1CCCCC1 | inconclusive: 1.41 µM [activator, partial curve, poor fit] | 
COc1ccc(Cl)cc1NC(=S)NNC(=O)c1cccs1 | inconclusive: 11.2 µM [activator, single point] | 
O=C(Nc1ccccc1OC(F)(F)F)c1ccc([N+](=O)[O-])cc1 | inconclusive: 15.8 µM [activator, single point] | 
COc1ccccc1NC(=O)CSc1ccc(-c2ccccn2)nn1 | inconclusive: 35.5 µM [activator, single point] and inconclusive: 31.6 µM [activator, single point] | 
Cc1ccc(Oc2ncnc(N)c2[N+](=O)[O-])cc1C |  | inactive: 15.1%
Oc1cc2c(cc1C(c1ccc(Cl)c(Cl)c1)N1CCCC1)OCO2 (stereo unspecified) | inconclusive: 35.5 µM [activator, partial curve, poor fit] | 
Cc1ccc(S(=O)(=O)Nc2ccc(NC(=O)/C=C/C(=O)O)cc2)cc1 | inconclusive: 11.2 µM [activator, single point] | 
COC(=O)Cn1c(=NC(=O)C(C)(C)C)sc2c(C)cc(C)cc21 |  | inactive: -8.08%
COC(=O)c1ccc2c(=O)n(CCCCCC(=O)N3CCN(c4cc(C)ccc4C)CC3)c(=O)[nH]c2c1 |  | inactive: -38.4%
CCC(=O)N1CCc2cc(CNS(=O)(=O)c3ccc(C(C)C)cc3)ccc21 |  | inactive: 9.82%
CCC(C)(C)C1CCC(=NNC(=S)Nc2cccnc2)CC1 (stereo unspecified) | inconclusive: 11.2 µM [activator, single point] | 
O=C1CSC(=S)N1/N=C/c1cccnc1 | inconclusive: 22.4 µM [activator, partial curve, poor fit] | 
COc1ccc(CCNc2nc(SCc3ccccc3F)nc3ccccc23)cc1OC |  | inactive: 6.59%
Cc1ccc(C(=O)NCC(c2cccs2)S(=O)(=O)c2ccccc2)cc1C (stereo unspecified) |  | inactive: -15.2%
COc1ccc(S(=O)(=O)NCCCCCC(=O)O)cc1C(=O)O | inconclusive: 5.62 µM [activator, single point] | 

SMILES | Potency | growth rescue
Cc1ccc(NC(=O)c2c3c(nc4ccccc24)C(=O)N(C2CCCCC2)C3)cc1F |  | inactive: -33.1%
N/C(=N\C(=S)Nc1ccccc1)c1ccccc1 | inconclusive: 14.1 µM [activator, single point] | 
CCN(CC(=O)Nc1cc(Cl)ccc1C)C(=O)c1cc(S(=O)(=O)N2CCCCCC2)ccc1OC | inconclusive: 3.16 µM [activator, partial curve, poor fit] | 
O=C(COC(=O)Cc1ccc(Br)cc1)Nc1ccc(Cl)cn1 | inconclusive: 15.8 µM [activator, partial curve, poor fit] | 
CC(C)(C)c1ccc(OCCC(=O)OCC(=O)Nc2cccnc2Cl)cc1 | inconclusive: 35.5 µM [activator, single point] | 
COc1ccc(NC(=S)N2CCC(c3ccccc3)C2)cc1 (stereo unspecified) | inconclusive: 35.5 µM [activator, single point] | 
COc1ccc(/C=C/C(=O)c2ccc[nH]2)cc1OC |  | inactive: 15.6%
COc1ccc(N(C=O)C(=S)SC)cc1 | inconclusive: 17.8 µM [activator, single point] | 
Nc1nc2ccccc2cc1S(=O)(=O)c1ccccc1 | inconclusive: 10 µM [activator, partial curve, poor fit] | 
Cc1cc(Oc2ccc(Cl)cc2)nc(-c2ccccn2)n1 | inconclusive: 11.2 µM [activator, partial curve, poor fit] | 
CCOc1ccc(NC(=O)c2cnc3sc(N4CCOCC4)nn3c2=O)cc1 |  | inactive: -16.3%
O=C(COc1ccc2ccc(=O)oc2c1)Nc1c(Cl)cccc1C(F)(F)F | inconclusive: 3.16 µM [activator, single point] | 
Cc1c(C(C)(C)O)[nH]c2ccc(C(F)(F)F)cc12 | active: 17.8 µM | 
CC(C)(C)c1ccc(NC(=O)CCNC(=O)c2ccco2)cc1 | inconclusive: 4.47 µM [activator, single point] | 
COc1cccc(S(=O)(=O)N(C)C[C@H]2Oc3ncc(Br)cc3C(=O)N([C@H](C)CO)C[C@H]2C)c1 |  | inactive: 1.07%
CCOc1ccccc1NC(=S)NCc1ccccc1 | inconclusive: 14.1 µM [activator, single point] | 
Cn1c(=O)c(C#N)c(-c2ccc(F)cc2)c2cc(C(=O)c3cc(Cl)cc(Cl)c3O)cnc21 |  | inactive: -6.09%
O=C(CCS(=O)(=O)c1ccc(F)cc1)Nc1ccc(N2CCN(Cc3ccccc3)CC2)cc1 |  | inactive: -7.54%
N#Cc1cn(CCCOc2ccccc2)c2ccccc12 | inconclusive: 35.5 µM [activator, single point] | 
NC(=S)N/N=C/c1ccc(-c2ccc(SC(F)F)cc2)o1 | inconclusive: 14.1 µM [activator, single point] | 
Cc1ccccc1-c1csc(C(C)(O)c2ccccc2)n1 (stereo unspecified) | inconclusive: 17.8 µM [activator, single point] | 
O=C1C=C(c2cccs2)C[C@H](c2ccccc2)[C@H]1n1nnc([N+](=O)[O-])n1 | inconclusive: 3.55 µM [activator, partial curve, poor fit] | 
CCOc1ccc(CNS(=O)(=O)c2ccc3c(c2)CC(C)N3C(C)=O)cc1OC (stereo unspecified) |  | inactive: -7.43%
COc1ccc(OC)c(CCNC(=O)CCCn2c(=O)c3cccn3c3cccnc32)c1 |  | inactive: -8.83%

SMILES | Potency | growth rescue
CNC(=S)Nc1ccc(C23CC4CC(CC(C4)C2)C3)cc1 | active: 7.08 µM | 
Cc1ccc(NC(=O)Cn2nc(C)c3nn(-c4ccc(Cl)cc4)c(C)c3c2=O)cc1F |  | inconclusive: 30.8% [activator]
COC(=O)c1ccc(COc2ccc3ccc(=O)oc3c2)o1 | inconclusive: 3.98 µM [activator, single point] | 
CC(=O)c1cccc(NC(=O)CCn2nc(C)c(S(=O)(=O)N3CCCCC3)c2C)c1 |  | inactive: -21.9%
CCOc1ccc(OCC)c(NC(=O)CN(C)S(=O)(=O)c2ccc3[nH]c(=O)oc3c2)c1 |  | inactive: 8.44%
CCOC(=O)c1[nH]c(C)c(CCC(=O)N2CCN(c3cc(C)ccc3C)CC2)c1C |  | inactive: 5.45%
COc1ccc(-n2c(Cc3cccn3C)nnc2SCC(=O)Nc2cc(C)cc(C)c2)cc1 | inconclusive: 35.5 µM [activator, single point] | 
Cc1ccc(C)c(N2CCN(S(=O)(=O)c3cc(C(=O)Nc4ccccc4C(F)(F)F)ccc3F)CC2)c1 | active: 3.98 µM | 
O=C(Nc1ccc2c(c1)OCCO2)C1CC1c1ccccc1 (stereo unspecified) | inconclusive: 3.55 µM [activator, single point] | 
CCc1ccccc1NC(=O)CN1CCN(C(=O)CNC(=O)c2ccc(N3CCCC3=O)cc2)CC1 |  | inactive: -6.73%
CCOC(=O)c1c(NC(=O)CSc2ncn[nH]2)sc(C)c1C | inconclusive: 2.51 µM [activator, full curve] | 
O=c1cc(O)c2ccc(O)cc2o1 |  | inactive: -45.7%
O=C(c1ccc(Sc2cccc(Cl)c2)c([N+](=O)[O-])c1)N1CCN(c2ccccn2)CC1 | active: 5.01 µM | 
C=CCOc1ccc(C=CC(=O)c2c(O)c(OC)c(OC)c(OC)c2OC)cc1 |  | inactive: -8.46%
NS(=O)(=O)c1ccc(CCNC(=O)c2ccc(NS(=O)(=O)c3ccc4[nH]c(=O)[nH]c4c3)cc2)cc1 | inconclusive: 2.82 µM [activator, full curve] | 
CN(C)c1ccc(NC(=O)C2C3C=CC(C3)C2C(=O)O)cc1 (stereo unspecified) |  | inactive: -32.4%
CC1CCc2nc(NC(=O)C3COc4ccccc4O3)sc2C1 (stereo unspecified) | inconclusive: 12.6 µM [activator, single point] | 
O=S(=O)(NCCc1csc(-c2cccc(F)c2)n1)c1cc(F)ccc1F | inconclusive: 3.16 µM [activator, partial curve, poor fit] | 
Nn1c(Cc2ccccc2)nc2cc(Cl)ccc2c1=O | inconclusive: 7.94 µM [activator, partial curve, poor fit] | 
CN1CCN(C(=O)c2ccc(-c3cccs3)s2)CC1 | inconclusive: 3.55 µM [activator, single point] | 
O=C(COC(=O)c1nc(Cl)ccc1Cl)Nc1ccccc1OC(F)F | inconclusive: 7.94 µM [activator, partial curve, poor fit] | 
O=c1c2ccccc2nc(SCc2cccc(F)c2)n1-c1cccc(S(=O)(=O)N2CCCC2)c1 |  | inactive: 15.8%
Cc1ccc(S(=O)(=O)N/N=C\c2ccc3c(c2)OCO3)c(C)c1 | inconclusive: 14.1 µM [activator, single point] | 
